{"source": "paper PMC5892938", "note": "The other results are listed elsewhere or left out. At the low end of the ranking the order means little.", "data": [{"target": "GST-SBP-SLBP (stem-loop binding protein) (UniProt Q14493)", "assay": "targeted RNA Bind-n-Seq;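 note: DESeq read counts versus GST-SBP nonspecific binding control pulldown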", "settings": "RBNS binding buffer: 25 mM Tris pH 7.5, 150 mM KCl, 3 mM MgCl2, 0.1% Tween, 0.5 mg/mL BSA, 1 mM DTT; 27 nM protein, 750 pM RNA pool; temperature not stated; high values mean tight binding", "values": [{"sequence": "GGUCACGUCUCAAUCAACUCUUCGCCCAGGGAAAUCCCUGGUUAUCUCAACAGCUCGCAGUCAAG", "binding signal (log2 fold change)": -0.26}, {"sequence": "GGUCACGUCUCAAUCAACUCAUCGUCAGGAGUUUCCUCCUGUAAUUUCAACAGCUCGCAGUCAAG", "binding signal (log2 fold change)": 0.136}, {"sequence": "GGUCACGUCUCAAUCAACUCUUUCCCCAGGGAAAACCCUGGUUUUUUCAACAGCUCGCAGUCAAG", "binding signal (log2 fold change)": -0.101}, {"sequence": "GGUCACGUCUCAAUCAACUCCUCGGAGGGGGGGAAAACCCCUUUACCCUCAACCUCAACAGCUCGCAGUCAAG", "binding signal (log2 fold change)": -0.144}, {"sequence": "GGUCACGUCUCAAUCAACUCUAUCCCAGGAGUUUCCUCCUGCUUACUCAACAGCUCGCAGUCAAG", "binding signal (log2 fold change)": 0.136}, {"sequence": "GGUCACGUCUCAAUCAACUCAUCCCCAGGAGUUUACUCCUGUUAUUUCAACAGCUCGCAGUCAAG", "binding signal (log2 fold change)": 0.0213}, {"sequence": "GGUCACGUCUCAAUCAACUCAUCGCCCAGGGAAAUCCCUGGUAUAUUCAACAGCUCGCAGUCAAG", "binding signal (log2 fold change)": 0.204}, {"sequence": "GGUCACGUCUCAAUCAACUCUUCAGAGGGGGGGAAAACCCCUUUACCCUCCACGUCAACAGCUCGCAGUCAAG", "binding signal (log2 fold change)": 0.12}, {"sequence": "GGUCACGUCUCAAUCAACUCAAGUCCCAGGGAAAACCCUGGUUAAUUCAACAGCUCGCAGUCAAG", "binding signal (log2 fold change)": -0.2}, {"sequence": "GGUCACGUCUCAAUCAACUCAAUCCCCAGGGAAAGCCCUGGUUUACUCAACAGCUCGCAGUCAAG", "binding signal (log2 fold change)": 0.167}, {"sequence": "GGUCACGUCUCAAUCAACUCUACUUCCAGGGAAAGCCCUGGUAUAUUCAACAGCUCGCAGUCAAG", "binding signal (log2 fold change)": -0.0601}, {"sequence": "GGUCACGUCUCAAUCAACUCAUCUCCAGGAGUUUACUCCUGCUAUCUCAACAGCUCGCAGUCAAG", "binding signal (log2 fold change)": -0.18}, {"sequence": "GGUCACGUCUCAAUCAACUCAUUCUCAGGAGUUUUCUCCUGCAAACUCAACAGCUCGCAGUCAAG", "binding signal (log2 fold change)": 0.0324}, {"sequence": "GGUCACGUCUCAAUCAACUCAAGUCCAGGAGUUUACUCCUGCUUUUUCAACAGCUCGCAGUCAAG", "binding signal (log2 fold change)": 0.0827}, {"sequence": "GGUCACGUCUCAAUCAACUCAUCUUCAGGAGUUUCCUCCUGUUUUUUCAACAGCUCGCAGUCAAG", "binding signal (log2 fold change)": -0.19}, {"sequence": "GGUCACGUCUCAAUCAACUCUUUUCCCAGGGAAAACCCUGGCAUACUCAACAGCUCGCAGUCAAG", "binding signal (log2 fold change)": 0.281}, {"sequence": "GGUCACGUCUCAAUCAACUCAAUAGAGGGGGGGAAAACCCCUUUGCCCUCAUCAUCAACAGCUCGCAGUCAAG", "binding signal (log2 fold change)": -0.318}, {"sequence": "GGUCACGUCUCAAUCAACUCUACUUCCAGGGAAAGCCCUGGCUUUUUCAACAGCUCGCAGUCAAG", "binding signal (log2 fold change)": -0.509}, {"sequence": "GGUCACGUCUCAAUCAACUCAUAAGAGGGGGGGAAAACCCCUUUGCCCUCACCUUCAACAGCUCGCAGUCAAG", "binding signal (log2 fold change)": -0.385}, {"sequence": "GGUCACGUCUCAAUCAACUCUACUUCAGGAGUUUGCUCCUGCAAUUUCAACAGCUCGCAGUCAAG", "binding signal (log2 fold change)": 0.0999}, {"sequence": "GGUCACGUCUCAAUCAACUCAUCCCCAGGAGUUUUCUCCUGCUAAGUCAACAGCUCGCAGUCAAG", "binding signal (log2 fold change)": 0.167}, {"sequence": "GGUCACGUCUCAAUCAACUCUUCGCCCAGGGAAAACCCUGGUAUUUUCAACAGCUCGCAGUCAAG", "binding signal (log2 fold change)": 0.0951}, {"sequence": "GGUCACGUCUCAAUCAACUCCAAAGAGGGGGGGAAAACCCCUUUACCCUCAUCGUCAACAGCUCGCAGUCAAG", "binding signal (log2 fold change)": 0.000747}, {"sequence": "GGUCACGUCUCAAUCAACUCUCUAGAGGGGGGGAAAACCCCUUUGCCCUCAACCUCAACAGCUCGCAGUCAAG", "binding signal (log2 fold change)": -0.23}, {"sequence": "GGUCACGUCUCAAUCAACUCAAUCGAGGGGGGGAAAACCCCUUUACCCUCUUUAUCAACAGCUCGCAGUCAAG", "binding signal (log2 fold change)": 0.153}, {"sequence": "GGUCACGUCUCAAUCAACUCAUCCCCAGGAGUUUACUCCUGCAUUUUCAACAGCUCGCAGUCAAG", "binding signal (log2 fold change)": 0.239}, {"sequence": "GGUCACGUCUCAAUCAACUCCAAAGAGGGGGGGAAAACCCCUUUACCCUCAUCCUCAACAGCUCGCAGUCAAG", "binding signal (log2 fold change)": -0.455}, {"sequence": "GGUCACGUCUCAAUCAACUCUUCUCCAGGAGUUUACUCCUGUUAUCUCAACAGCUCGCAGUCAAG", "binding signal (log2 fold change)": 0.096}, {"sequence": "GGUCACGUCUCAAUCAACUCAUUUCCCAGGGAAACCCCUGGCAUUCUCAACAGCUCGCAGUCAAG", "binding signal (log2 fold change)": -0.149}, {"sequence": "GGUCACGUCUCAAUCAACUCAUCUUCCAGGGAAAUCCCUGGCUUUCUCAACAGCUCGCAGUCAAG", "binding signal (log2 fold change)": -0.0984}, {"sequence": "GGUCACGUCUCAAUCAACUCAACUCCCAGGGAAAACCCUGGCUAAUUCAACAGCUCGCAGUCAAG", "binding signal (log2 fold change)": 0.0461}, {"sequence": "GGUCACGUCUCAAUCAACUCAUUCUCCAGGGAAAACCCUGGCUUUUUCAACAGCUCGCAGUCAAG", "binding signal (log2 fold change)": -0.2}, {"sequence": "GGUCACGUCUCAAUCAACUCUUAGGAGGGGGGGAAAACCCCUUUACCCUCAAUAUCAACAGCUCGCAGUCAAG", "binding signal (log2 fold change)": 0.154}, {"sequence": "GGUCACGUCUCAAUCAACUCAUUCCCAGGAGUUUACUCCUGUUAUCUCAACAGCUCGCAGUCAAG", "binding signal (log2 fold change)": -0.00931}, {"sequence": "GGUCACGUCUCAAUCAACUCUAUCUCAGGAGUUUUCUCCUGCAAUCUCAACAGCUCGCAGUCAAG", "binding signal (log2 fold change)": 0.234}, {"sequence": "GGUCACGUCUCAAUCAACUCAAUUCCCAGGGAAACCCCUGGCUUACUCAACAGCUCGCAGUCAAG", "binding signal (log2 fold change)": 0.0784}, {"sequence": "GGUCACGUCUCAAUCAACUCCAUCGAGGGGGGGAAAACCCCUUUACCCUCAUCCUCAACAGCUCGCAGUCAAG", "binding signal (log2 fold change)": -0.326}, {"sequence": "GGUCACGUCUCAAUCAACUCAACUCCCAGGGAAAGCCCUGGCAAACUCAACAGCUCGCAGUCAAG", "binding signal (log2 fold change)": -0.00374}, {"sequence": "GGUCACGUCUCAAUCAACUCAUCUUCAGGAGUUUUCUCCUGCAAACUCAACAGCUCGCAGUCAAG", "binding signal (log2 fold change)": 0.191}, {"sequence": "GGUCACGUCUCAAUCAACUCUUCGCCAGGAGUUUUCUCCUGUAUUCUCAACAGCUCGCAGUCAAG", "binding signal (log2 fold change)": -0.14}, {"sequence": "GGUCACGUCUCAAUCAACUCUAUCCCCAGGGAAAUCCCUGGCAAACUCAACAGCUCGCAGUCAAG", "binding signal (log2 fold change)": 0.241}, {"sequence": "GGUCACGUCUCAAUCAACUCAUCCUCCAGGGAAAUCCCUGGUUUUUUCAACAGCUCGCAGUCAAG", "binding signal (log2 fold change)": -0.309}, {"sequence": "GGUCACGUCUCAAUCAACUCUAUCGAGGGGGGGAAAACCCCUUUGCCCUCAUUUUCAACAGCUCGCAGUCAAG", "binding signal (log2 fold change)": -0.827}, {"sequence": "GGUCACGUCUCAAUCAACUCUUCCCCCAGGGAAAACCCUGGUAAUGUCAACAGCUCGCAGUCAAG", "binding signal (log2 fold change)": 0.0222}, {"sequence": "GGUCACGUCUCAAUCAACUCUACUUCCAGGGAAAGCCCUGGCUAAUUCAACAGCUCGCAGUCAAG", "binding signal (log2 fold change)": -0.0525}, {"sequence": "GGUCACGUCUCAAUCAACUCCUCUGAGGGGGGGAAAACCCCUUUACCCUCCACAUCAACAGCUCGCAGUCAAG", "binding signal (log2 fold change)": -0.0165}, {"sequence": "GGUCACGUCUCAAUCAACUCAGUCCCAGGAGUUUACUCCUGUAUUUUCAACAGCUCGCAGUCAAG", "binding signal (log2 fold change)": -0.0836}]}]}
